Literature values, collected in article PMC4810223 (Toxins, 2016).

Settings: cited from earlier work

## NC(=O)[C@@H]1CC[C@H](c2ccc(OCc3ccccc3F)cc2)N1 [CNV1014802]
  protein bound: 94%
